The text below walks through data of publication PMC6664820, “Novel natural and synthetic inhibitors of solute carriers SGLT1 and SGLT2” (Pharmacology Research & Perspectives, 2019).

Hit rate of the full screen: of about 1,900 compounds, about 40 (2%) showed an effect of 50% or more. Some of the results follow.

human SGLT1 (hSGLT1), sequence (P13866 whole entry, looked up): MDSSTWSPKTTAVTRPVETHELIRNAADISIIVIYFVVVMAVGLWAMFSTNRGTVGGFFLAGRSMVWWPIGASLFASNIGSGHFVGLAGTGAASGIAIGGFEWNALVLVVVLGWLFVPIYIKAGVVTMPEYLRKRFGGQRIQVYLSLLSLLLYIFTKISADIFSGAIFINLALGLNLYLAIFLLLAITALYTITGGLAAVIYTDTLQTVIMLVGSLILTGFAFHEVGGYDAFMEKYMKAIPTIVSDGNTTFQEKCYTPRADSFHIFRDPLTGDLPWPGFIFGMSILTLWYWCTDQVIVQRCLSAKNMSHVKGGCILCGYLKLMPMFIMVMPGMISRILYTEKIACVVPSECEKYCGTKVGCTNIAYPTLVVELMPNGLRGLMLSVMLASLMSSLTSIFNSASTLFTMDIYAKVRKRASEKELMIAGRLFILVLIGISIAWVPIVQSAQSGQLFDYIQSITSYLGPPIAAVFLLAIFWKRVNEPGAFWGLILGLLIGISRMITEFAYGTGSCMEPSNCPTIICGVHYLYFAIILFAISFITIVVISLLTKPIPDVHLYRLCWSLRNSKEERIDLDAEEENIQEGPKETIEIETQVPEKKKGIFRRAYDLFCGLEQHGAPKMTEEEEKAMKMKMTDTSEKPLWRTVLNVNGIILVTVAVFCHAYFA

The target in this assay is human SGLT1 (hSGLT1) (human, UniProt P13866). Description: primary screen, percent of control activity; higher = less effect of the substance. Set-up: single well. The conditions noted are these: 50 µM. The method in brief:
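Single-point screen at 50 µmol/L in CHO-hSGLT1 cells, with 160 µmol/L 1-NBD-glucose in glucose-free DMEM for 90 min at 37°C. Fluorescence from isopropanol extracts was calibrated, and CHO wild-type uptake was subtracted. Data are percent of uptake without compound.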
For the compound `Cn1c([N+](=O)[O-])cnc1COC(N)=O`, the “NORMALIZED SGLT1 ACTIVITY (%)” value is reported as 82%. The result for `COc1ccccc1-c1cc(=O)c2cccc(OC)c2o1` reads 233%; that for `COC(=O)C[C@H]1C(C)(C)C2(O)OC34CC2C(=O)[C@]1(C)C3CC[C@]1(C)C4=CC(=O)O[C@H]1c1ccoc1` (some centres unmarked), 104%. Turning to `COc1cc(-c2coc3cc(OCc4ccccc4)c(OC)c(O)c3c2=O)cc(O)c1OC`, the “NORMALIZED SGLT1 ACTIVITY (%)” value came out at 301%. The result for `CCCc1ncc(C[n+]2ccccc2C)c(N)n1.Cl.[Cl-]` reads 87%; that for `COc1c(O)cc(O)cc1O`, 110%.

Turning to `Cl.Cl.NCCSSCCN`, the “NORMALIZED SGLT1 ACTIVITY (%)” value is given as 116%. Then `CC1COc2c(N3CCN(C)CC3)c(F)cc3c(=O)c(C(=O)O)cn1c23` (centres unmarked), with 162%. Then `CCOP(=S)(OCC)Oc1ccc2c(C)c(Cl)c(=O)oc2c1`, with 118%. Then `CCCCCC1C(=O)CCC1CC(=O)O` (centres unmarked), with 135%; and `NC(=O)c1ccc([N+](=O)[O-])cc1Cl`, with 119%; and `Cc1ncc([N+](=O)[O-])n1CC(C)O` (centres unmarked), with 92%. For the compound `COc1cc(O)c2c(=O)c(-c3ccccc3)coc2c1`, the “NORMALIZED SGLT1 ACTIVITY (%)” value amounted to 133%. Then `CCC(=O)OCC(=O)C1(OC(=O)CC)C(C)CC2C3CCC4=CC(=O)C=CC4(C)C3(Cl)C(O)CC21C` (centres unmarked), with 216%; and `CC(=O)O[C@@H]1C2CC[C@@H]3C1(C[C@@H](O)[C@@]1(O)[C@@H](C[C@H](O)C1(C)C)[C@]3(C)O)C[C@@]2(C)O` (some centres unmarked), with 106%. Regarding `CC(=O)OCC(=O)[C@@]12OC3(CCCC3)O[C@@H]1C[C@H]1[C@@H]3CCC4=CC(=O)C=C[C@]4(C)[C@@]3(F)[C@@H](O)C[C@@]12C`, the “NORMALIZED SGLT1 ACTIVITY (%)” value is 179%. The result for `COc1c(O)cc2oc3cc(O)c(CC=C(C)C)c(O)c3c(=O)c2c1CC=C(C)C` reads 131%; that for `COC[C@]12CN(C=O)C3[C@@H]4[C@H](OC)C1[C@]3(C1CC3(O)C(OC)C(O)C4(OC(C)=O)C1C3OC(=O)c1ccccc1)[C@@H](OC)C[C@H]2O` (some centres unmarked), 91%. The result for `Nc1nc(=O)c2nc(CNc3ccc(C(=O)N[C@@H](CCC(=O)O)C(=O)O)cc3)cnc2[nH]1` reads 114%; that for `CC(C)=CCC/C(C)=C\CO`, 133%.

Consider `CCN1CCN(C(=O)NC(C(=O)N[C@@H]2C(=O)N3[C@@H]2SC(C)(C)[C@@H]3C(=O)[O-])c2ccccc2)C(=O)C1=O.[Na+]` (some centres unmarked), for which the “NORMALIZED SGLT1 ACTIVITY (%)” value is 77%. Then `O=c1c(O)c(-c2ccccc2)oc2cc(O)ccc12`, with 224%. The result for `ClC1=C(Cl)C2(Cl)C3C4CC(C5OC45)C3C1(Cl)C2(Cl)Cl` (centres unmarked) reads 136%; that for `N=C(N)NS(=O)(=O)c1ccc(N)cc1`, 92%.

`CCCCC[C@@H](O)[C@H]1C(=O)O[C@H](C)[C@@H](O)/C=C/C=C/C=C/C=C/C=C(\C)[C@@H](O)C[C@H](O)C[C@H](O)C[C@H](O)C[C@H](O)C[C@H](O)C[C@@H]1O`: the “NORMALIZED SGLT1 ACTIVITY (%)” value was 95%. The result for `O=C1c2ccccc2-c2cccc3cccc1c23` reads 143%; that for `CC(C)=CCc1c2c(c(O)c3c(=O)c(O)c(-c4ccccc4)oc13)C=CC(C)(C)O2`, 105%. Then `C#C[C@]1(OC(C)=O)CC[C@H]2[C@@H]3CCC4=CC(=O)CC[C@@H]4[C@H]3CC[C@@]21C`, with 89%; and `CC1=CC(=O)c2ccccc2C1=O`, with 164%. Take `COC(=O)[C@@H]1C(O)CC[C@H]2CN3CCc4c([nH]c5ccccc45)[C@@H]3C[C@@H]21` (some centres unmarked): the “NORMALIZED SGLT1 ACTIVITY (%)” value amounted to 137%.

Turning to `CCN1CCCC(OC(=O)C(c2ccccc2)c2ccccc2)C1.Cl` (centres unmarked), the “NORMALIZED SGLT1 ACTIVITY (%)” value turned out to be 90%.

`COc1cccc(C=O)c1OC`: the “NORMALIZED SGLT1 ACTIVITY (%)” value is given as 165%.

For the compound `Cc1scc2c1N(C(=O)CN1CCN(C)CC1)c1ccccc1NC2=O.Cl`, the “NORMALIZED SGLT1 ACTIVITY (%)” value stood at 123%.

`Cc1nc2sccn2c(=O)c1CCN1CCC(=C(c2ccc(F)cc2)c2ccc(F)cc2)CC1`: the “NORMALIZED SGLT1 ACTIVITY (%)” value is reported as 56%. Then `Cn1c(=O)[nH]c2nc[nH]c2c1=O`, with 95%; and `COc1ccc(C2C(=O)c3ccccc3C2=O)cc1`, with 124%.

`Cc1cc(O)cc(O)c1C(=O)O`: the “NORMALIZED SGLT1 ACTIVITY (%)” value was determined as 91%.

Consider `Nc1ccn(C2O[C@H](CO)[C@@H](O)[C@@H]2O)c(=O)n1` (some centres unmarked), for which the “NORMALIZED SGLT1 ACTIVITY (%)” value worked out at 143%. Then `CC[C@H](C)C(=O)O[C@H]1C[C@H](O)C=C2C=C[C@H](C)[C@H](CC[C@@H](O)C[C@@H](O)CC(=O)O)[C@H]21`, with 136%; and `Cc1cnc(NC(=O)C2=C([O-])c3ccccc3S(=O)(=O)N2C)s1.[Na+]`, with 133%.

As to `COc1cc([C@@H]2c3cc4c(cc3[C@@H](O)C3COC(=O)C32)OCO4)cc(OC)c1O` (some centres unmarked), the “NORMALIZED SGLT1 ACTIVITY (%)” value amounted to 123%.

With `Cl.c1ccc(C2CN3CCSC3=N2)cc1` (centres unmarked), the “NORMALIZED SGLT1 ACTIVITY (%)” value worked out at 101%. On to `O=C/C=C/c1ccc(O)cc1`, for which the “NORMALIZED SGLT1 ACTIVITY (%)” value came out at 172%. Then `O=C(O)c1cc(O)c2c(c1)C(=O)c1cc(O)cc(O)c1C2=O`, with 132%.

As to `CC1=CC2C(C(C)C)CCC(C)(O)C2CC1` (centres unmarked), the “NORMALIZED SGLT1 ACTIVITY (%)” value amounted to 172%. Then `OCC(O)C(O)C(O)CO` (centres unmarked), with 85%; and `CCCCCCCCCCCCCCCCCC(=O)O.CC[C@H]1OC(=O)[C@H](C)[C@@H](O[C@H]2C[C@@](C)(OC)[C@@H](O)[C@H](C)O2)[C@H](C)[C@@H](O[C@@H]2O[C@H](C)C[C@H](N(C)C)[C@H]2O)[C@](C)(O)C[C@@H](C)C(=O)[C@H](C)[C@@H](O)[C@]1(C)O`, with 106%.
